According to PubChem BioAssay AID504832 (National Center for Advancing Translational Sciences (NCATS), 2011):
Out of some 310,000 compounds screened, about 18,000 (5.8%) were called active. Inconclusive means that the source gave no clear call. Such entries were picked first, then a sample of the others. Calls come from the whole dose curve; as a rule, active = well fitted inhibition curve with a large enough effect; inconclusive = small, poorly fitted or top-dose-only effect, or another doubt; inactive = no such curve, though single readings can be large or run the other way. Potencies of inconclusive entries are left out as doubtful fits.

Assay: Primary qHTS for delayed death inhibitors of the malarial parasite plastid, 48 hour incubation
Settings: P. falciparum luciferase growth in erythrocytes; series mostly up to 28.7 µM; activity change, negative = inhibition: at the top concentration
Procedure, shortened: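 Compounds are pin-transferred into medium, infected erythrocytes (2% hematocrit, 0.1% parasitemia final) are added, and plates sit one parasite generation at 37 C in 5% CO2. Detection reagent is then added and luminescence measured.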
% is set by controls: 0 for no effect and ±100 for the full control effect; potency is the fitted concentration of half-maximal effect; tags give direction and shape of the fitted curve.

Row | Structure (SMILES) | Potency | activity change, negative = inhibition
1 | Cc1cccc(OCC(=O)Nc2ccc3c(c2)nc(CCN2CCN(c4ccccn4)CC2)n3C)c1 | inconclusive [inhibitor, single point] | –
2 | CC(C)CCn1c(SCCc2ccccc2)nc2c1c(=O)[nH]c(=O)n2C | inconclusive [inhibitor, single point] | –
3 | O=C(CCC(=O)N(c1cccc(F)c1)C(C(=O)NC1CCCC1)c1ccncc1)Nc1cccnc1 (configuration not stated) | inconclusive [inhibitor, single point] | –
4 | Cc1ccc(SC(C)C(=O)O/N=C(\N)c2ccncc2)cc1 (configuration not stated) | inconclusive [inhibitor, single point] | –
5 | Cc1cc(/C=N/Nc2ncnc(N)c2[N+](=O)[O-])c(C)n1-c1ccccc1 | – | inactive: 27.4%
6 | CCNC(=O)/C(C#N)=C/c1c(N2CCN(c3ccc(OC)cc3)CC2)nc2c(C)cccn2c1=O | inconclusive [inhibitor, single point] | –
7 | O=c1c(CN2CCN(c3ccccn3)CC2)coc2ccccc12 | – | inactive: 34%
8 | COc1cc(CN2CCCC(N3CCN(c4ccccc4C)CC3)C2)ccc1O (configuration not stated) | active: 8.28 µM | –
9 | COc1ccc(NC(=O)CCn2c(=O)c3cccn3c3ccccc32)c(OC)c1 | inconclusive [inhibitor, partial curve] | –
10 | CCCCCCCCCC(=O)O[C@H]1CC[C@H]2[C@@H]3CCC4=CC(=O)CC[C@]4(C)[C@H]3CC[C@]12C | active: 12 µM | –
11 | O=C(NCCC(c1ccccc1)c1ccco1)c1cccs1 (configuration not stated) | inconclusive [inhibitor, partial curve, poor fit] | –
12 | Cc1ccc(Sc2c(C)[nH]n(C(C)(C)C)c2=O)cc1 | – | inactive: -13.8%
13 | Cc1nnc(NC(=O)CSc2ccc3nnc(-c4cccnc4)n3n2)s1 | – | inactive: 32.8%
14 | CCOc1cccc(C(=O)Nc2ccc(NC(=O)c3ccccc3)c(C)c2)c1 | inconclusive [inhibitor, partial curve, poor fit] | –
15 | CCOC(=O)c1[nH]c2c(c1-c1ccccc1)C(=O)CC(c1ccc(OC)c(OC)c1)C2 (configuration not stated) | inconclusive [inhibitor, partial curve, poor fit] | –
16 | Cc1cccc(-c2noc(CN(C)C(=O)c3ccoc3C)n2)c1 | – | inactive: 10.5%
17 | CC1(C)Cc2ccccc2C(NNC(=O)c2ccccn2)=N1 | inconclusive [inhibitor, single point] | –
18 | CC1CCC2(CC1)SCC(=O)N2c1ccccc1 (configuration not stated) | – | inactive: 2.42%
19 | CC1(CCc2ccccc2)NC(=O)N(Cc2cc([N+](=O)[O-])cc3c2OCOC3)C1=O (configuration not stated) | inconclusive [inhibitor, partial curve, poor fit] | –
20 | CCC1=Nc2cc(C(=O)NCc3cccnc3)ccc2Sc2ccc(C)cc21 | inconclusive [inhibitor, partial curve] | –
21 | Cc1ccc2c(Cl)c(C(=O)Nc3nn[nH]n3)sc2c1 | inconclusive [inhibitor, partial curve, poor fit] | –

Row | Structure (SMILES) | Potency | activity change, negative = inhibition
22 | COC(=O)C1CCN(C(=O)COC(=O)CNC(=O)c2ccc(Cl)cc2Cl)CC1 | – | inactive: -27.5%
23 | CCN(C(=O)CSc1nc2n[nH]c(C)c2c(=N)n1-c1ccc(Cl)c(C)c1)c1cccc(C)c1 | inconclusive [inhibitor, partial curve, poor fit] | –
24 | O=C(Cn1cnc2c(nnn2-c2ccc(F)cc2)c1=O)NCC1CCCO1 (configuration not stated) | – | inactive: 10.6%
25 | CC(C)n1c(CSCc2ccc(Cl)cc2Cl)n[nH]c1=S | inconclusive [inhibitor, partial curve, poor fit] | –
26 | O=C(NCc1ccccc1Cl)C1CCN(S(=O)(=O)N2CCCC2)CC1 | – | inactive: 14.4%
27 | CCC(=O)N1CCc2cc(S(=O)(=O)N3CCN(c4ccccn4)CC3)ccc21 | inconclusive [inhibitor, partial curve] | –
28 | COc1ccc(Oc2nc(Oc3ccc(OC)cc3)nc(Oc3ccc(OC)cc3)n2)cc1 | – | inactive: 20.2%
29 | Cc1ccc(C(=O)Nc2ccc(C)c(S(=O)(=O)N3CCOCC3)c2)c(C)c1 | inconclusive [inhibitor, partial curve] | –
30 | COc1ccc(-n2nc(C(=O)NCC(=O)NCC3CCCO3)c3ccccc3c2=O)cc1Cl (configuration not stated) | inconclusive [inhibitor, single point] | –
31 | CC(Sc1nc(NCc2ccccc2)nc(N(C)C)n1)C(=O)Nc1ccccc1 (configuration not stated) | inconclusive [inhibitor, single point] | –
32 | CCN(c1ccccc1)S(=O)(=O)c1ccc(C(=O)Nc2ccc(C)cn2)cc1 | inconclusive [inhibitor, single point] | –
33 | CN(C)C(CN1C(=O)C2CC=CCC2C1=O)c1cn(C)c2ccccc12 (configuration not stated) | inconclusive [inhibitor, full curve, poor fit] | –
34 | CCOC(=O)c1c(C)c(C(=O)NCc2ccccn2)c(C)n1C | inconclusive [inhibitor, partial curve, poor fit] | –
35 | COc1ccc(-c2nsc3c(SCC(=O)Nc4cc(C)ccc4C)ncnc23)cc1 | inconclusive [inhibitor, full curve, poor fit] | –
36 | Cc1cc(C)n2nc(C(=O)Nc3ccc(S(=O)(=O)N4CCCCC4)cc3)nc2n1 | inconclusive [inhibitor, partial curve] | –
37 | O=S(=O)(c1ccccc1)N1CCN(CC2CC3C=CC2C3)CC1 (configuration not stated) | – | inactive: -7.18%
38 | Cc1ccccc1C(=O)N1CCC(C(=O)N(C)CCOc2ccccc2)CC1 | inconclusive [inhibitor, single point] | –
39 | CCn1c(CCNC(=O)c2ccc(OC)cc2)nnc1SCc1ccc(Cl)cc1Cl | inconclusive [inhibitor, single point] | –
40 | O=C(C1CCN(CCCc2ccccc2)CC1)N(CCc1ccccc1)Cc1ccccc1 | inconclusive [inhibitor, single point] | –
41 | COC(=O)COc1ccc(-c2nccc(-c3ccccn3)n2)cc1 | inconclusive [inhibitor, partial curve] | –
42 | O=C(/C=C/NCC(=O)c1ccccc1)c1ccc(Br)cc1 | – | inactive: 21.4%
